The source of these data is US20250270339A1 (Alector, published 2025).

T1: Cyno TfR ECD Avi-His (cynomolgus macaque, UniProt Q5RDH6 89-760 (Pongo abelii entry), biotin on the Avi tag (BirA) where captured on streptavidin)
T1 construct: also called Cyno TfR Avi-His; cyno TfR Avi-His
T1 chain: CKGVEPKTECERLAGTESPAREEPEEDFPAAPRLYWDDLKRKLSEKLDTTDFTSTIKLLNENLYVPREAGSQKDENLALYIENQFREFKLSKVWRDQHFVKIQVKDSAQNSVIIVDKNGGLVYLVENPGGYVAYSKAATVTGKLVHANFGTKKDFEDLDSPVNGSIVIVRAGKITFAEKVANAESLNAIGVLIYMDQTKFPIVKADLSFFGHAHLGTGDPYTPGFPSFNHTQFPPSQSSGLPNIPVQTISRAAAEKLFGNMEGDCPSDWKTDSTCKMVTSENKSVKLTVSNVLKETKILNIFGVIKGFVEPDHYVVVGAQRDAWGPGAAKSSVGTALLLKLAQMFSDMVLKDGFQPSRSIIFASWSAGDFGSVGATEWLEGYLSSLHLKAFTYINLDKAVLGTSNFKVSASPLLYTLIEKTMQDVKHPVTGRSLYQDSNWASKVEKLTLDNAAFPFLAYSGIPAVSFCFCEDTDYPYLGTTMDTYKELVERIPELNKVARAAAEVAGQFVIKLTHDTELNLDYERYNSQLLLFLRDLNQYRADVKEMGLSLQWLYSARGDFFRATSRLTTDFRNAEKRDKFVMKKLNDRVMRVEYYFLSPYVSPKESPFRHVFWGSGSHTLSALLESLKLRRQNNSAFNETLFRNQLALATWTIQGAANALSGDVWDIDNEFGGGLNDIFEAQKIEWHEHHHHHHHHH

T2: huTfR Apical Domain-Avi-His (human, biotin on the Avi tag (BirA) where captured on streptavidin)
T2 construct: also called huTfR apical Avi-His; hTfR Apical
T2 chain: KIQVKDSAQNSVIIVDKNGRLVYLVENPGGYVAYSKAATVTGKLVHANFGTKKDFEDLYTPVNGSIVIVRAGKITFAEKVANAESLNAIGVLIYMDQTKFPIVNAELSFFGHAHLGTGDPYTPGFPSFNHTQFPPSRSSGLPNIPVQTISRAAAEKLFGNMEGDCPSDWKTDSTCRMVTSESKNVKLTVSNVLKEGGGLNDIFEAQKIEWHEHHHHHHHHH

B1: TfR30 2+1 anti-TfR bispecific antibody (bispecific antibody, human IgG1, kappa)
heavy 1: EVRLLESGGGLVQPGGSLRLSCAASGFTFSNYAMGWVRQAPGKGLEWVSAISGSGGSTYYADSVKGRFTTSRDDSKNALYLQMNSLRAEDTAVYYCARGGPGWYAADVWGQGTTVTVSSASTKGPSVFPLAPSSKSTSGGTAALGCLVKDYFPEPVTVSWNSGALTSGVHTFPAVLQSSGLYSLSSVVTVPSSSLGTQTYICNVNHKPSNTKVDKKV[here human IgG1 Fc with changes without letters]GGGGSGGGGSGGGGSQVQLQQSGPQLVRPGASVKISCKASGYSFTNYWLHWVKQRPGQGLEWIGMIDPSDSETRLNQKFKDKATLTVDKSSSTAYMQLSSPTSEDSAVYYCARWGGGYYGFAYWGQGTLVTVSAGGSEGKSSGSGSESKSTGGSDIVMTQSQKFMSTSVGDRVSITCKASQNVRTAVAWYQQKPGQSPKALIYLASNRHTGVPDRFTGSGSGTDFTLTISNVQSEDLADYFCLQHWNYPWTFGGGTKLEIK
heavy 2: EVRLLESGGGLVQPGGSLRLSCAASGFTFSNYAMGWVRQAPGKGLEWVSAISGSGGSTYYADSVKGRFTTSRDDSKNALYLQMNSLRAEDTAVYYCARGGPGWYAADVWGQGTTVTVSS[here human IgG1 constant region with changes without letters]
light: DIQMTQSPSSLSASVGDRVTITCRASQSISSYLNWYQQKPGKAPKLLIYAASSLQSGVPSRFSGSGSGTDFTLTISSLQPEDFATYYCQQADLPAFAFGGGTKVEIKRTVAAPSVFIFPPSDEQLKSGTASVVCLLNNFYPREAKVQWKVDNALQSGNSQESVTEQDSKDSTYSLSSTLTLSKADYEKHKVYACEVTHQGLSSPVTKSFNRGEC
notes: 2+1
B2: TfR32 2+1 anti-TfR bispecific antibody (bispecific antibody, human IgG1, kappa)
heavy 1: EVRLLESGGGLVQPGGSLRLSCAASGFTFSNYAMGWVRQAPGKGLEWVSAISGSGGSTYYADSVKGRFTTSRDDSKNALYLQMNSLRAEDTAVYYCARGGPGWYAADVWGQGTTVTVSSASTKGPSVFPLAPSSKSTSGGTAALGCLVKDYFPEPVTVSWNSGALTSGVHTFPAVLQSSGLYSLSSVVTVPSSSLGTQTYICNVNHKPSNTKVDKKV[here human IgG1 Fc with changes without letters]GGGGSGGGGSGGGGSQVQLQQSGADLVRPGTSVKVSCKASGNAFSNYLIEWVKQRPGQGLEWIGVINPGSGETNYNEKFKGKATLTADKSSSTAYMQLSSLTSDDSAVYFCAIRYDGPLLDHWGQGTSVTVSSGGSEGKSSGSGSESKSTGGSSIVMTQTPKFLLVSAGDRVTITCKASQSVSNDVAWFQQKPGQSPKLLIYYASNRYTGVPDRFTGSGYGTDFTFTIRNVQAEDLAVYFCQQDYISPTFGAGTKLELK
heavy 2: EVRLLESGGGLVQPGGSLRLSCAASGFTFSNYAMGWVRQAPGKGLEWVSAISGSGGSTYYADSVKGRFTTSRDDSKNALYLQMNSLRAEDTAVYYCARGGPGWYAADVWGQGTTVTVSS[here human IgG1 constant region with changes without letters]
light: B1 light
notes: 2+1
B3: TfR9.1B 2+1 anti-TfR bispecific antibody (bispecific antibody, human IgG1, kappa)
heavy 1: EVRLLESGGGLVQPGGSLRLSCAASGFTFSNYAMGWVRQAPGKGLEWVSAISGSGGSTYYADSVKGRFTTSRDDSKNALYLQMNSLRAEDTAVYYCARGGPGWYAADVWGQGTTVTVSSASTKGPSVFPLAPSSKSTSGGTAALGCLVKDYFPEPVTVSWNSGALTSGVHTFPAVLQSSGLYSLSSVVTVPSSSLGTQTYICNVNHKPSNTKVDKKV[here human IgG1 Fc with changes without letters]GGGGSGGGGSGGGGSQVQLVQSGAEVKKPGASVKVSCKASGYTFTEYAMHWVRQAPGQGLEWMGGINPNDGGTSYNQKFKGRVTMTVDTSTSTAYMELSSLRSEDTAVYYCASQRWLLRGGDYWGQGTLVTVSSGGSEGKSSGSGSESKSTGGSDVVMTQSPLSLPVTLGQPASISCKSSQSLLDSDGKTYLNWLQQRPGQSPRRLIYLVSKLDSGVPDRFSGSGSGTDFTLKISRVEAEDVGVYYCWQGTHFPQTFGGGTKVEIK
heavy 2: EVRLLESGGGLVQPGGSLRLSCAASGFTFSNYAMGWVRQAPGKGLEWVSAISGSGGSTYYADSVKGRFTTSRDDSKNALYLQMNSLRAEDTAVYYCARGGPGWYAADVWGQGTTVTVSS[here human IgG1 constant region with changes without letters]
light: B1 light
notes: 2+1
B4: TfR9.1B.28 2+1 anti-TfR bispecific antibody (bispecific antibody, human IgG1, kappa)
heavy 1: EVRLLESGGGLVQPGGSLRLSCAASGFTFSNYAMGWVRQAPGKGLEWVSAISGSGGSTYYADSVKGRFTTSRDDSKNALYLQMNSLRAEDTAVYYCARGGPGWYAADVWGQGTTVTVSSASTKGPSVFPLAPSSKSTSGGTAALGCLVKDYFPEPVTVSWNSGALTSGVHTFPAVLQSSGLYSLSSVVTVPSSSLGTQTYICNVNHKPSNTKVDKKV[here human IgG1 Fc with changes without letters]GGGGSGGGGSGGGGSQVQLVQSGAEVKKPGASVKVSCKASGYTFTEYAMHWVRQAPGQGLEWMGGINPNDGGTSYNQKFKGRVTMTVDTSTSTAYMELSSLRSEDTAVYYCASQRWLQRGGDYWGQGTLVTVSSGGSEGKSSGSGSESKSTGGSDVVMTQSPLSLPVTLGQPASISCKSSQSLEDSDGKTYLNWLQQRPGQSPRRLIYLVSKLDSGVPDRFSGSGSGTDFTLKISRVEAEDVGVYYCWQGTHFPQTFGGGTKVEIK
heavy 2: EVRLLESGGGLVQPGGSLRLSCAASGFTFSNYAMGWVRQAPGKGLEWVSAISGSGGSTYYADSVKGRFTTSRDDSKNALYLQMNSLRAEDTAVYYCARGGPGWYAADVWGQGTTVTVSS[here human IgG1 constant region with changes without letters]
light: B1 light
notes: 2+1

One test addresses T3, Full length human TfR on CHO cells (human, UniProt P02786).
T3 construct: also called CHO + huTfR; CHO + hTfR
T3 sequence (P02786 whole entry): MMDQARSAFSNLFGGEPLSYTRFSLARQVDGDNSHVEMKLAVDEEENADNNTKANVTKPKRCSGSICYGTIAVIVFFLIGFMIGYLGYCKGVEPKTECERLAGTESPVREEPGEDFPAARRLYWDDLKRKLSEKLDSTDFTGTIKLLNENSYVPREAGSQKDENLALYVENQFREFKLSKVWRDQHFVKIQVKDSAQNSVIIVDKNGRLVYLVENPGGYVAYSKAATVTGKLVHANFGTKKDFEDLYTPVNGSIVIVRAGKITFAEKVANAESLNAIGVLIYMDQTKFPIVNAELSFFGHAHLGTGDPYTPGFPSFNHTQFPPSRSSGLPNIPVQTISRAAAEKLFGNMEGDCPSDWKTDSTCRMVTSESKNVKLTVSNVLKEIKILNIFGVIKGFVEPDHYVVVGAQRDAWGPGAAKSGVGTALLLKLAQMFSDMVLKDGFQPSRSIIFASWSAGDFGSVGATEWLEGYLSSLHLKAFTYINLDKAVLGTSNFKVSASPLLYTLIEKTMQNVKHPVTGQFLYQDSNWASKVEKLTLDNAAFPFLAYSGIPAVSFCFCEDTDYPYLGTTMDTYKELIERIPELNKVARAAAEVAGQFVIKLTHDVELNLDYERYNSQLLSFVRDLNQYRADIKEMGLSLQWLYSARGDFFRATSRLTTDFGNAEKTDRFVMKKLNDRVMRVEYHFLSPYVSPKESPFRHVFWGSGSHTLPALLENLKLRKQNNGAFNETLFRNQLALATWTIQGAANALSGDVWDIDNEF
Kind of test: FACS MFI.
On to B1, for which the “fold over CHO parental” value is 261 fold.
As to B2, the “fold over CHO parental” value was determined as 242 fold.

The target of the next test is T4, Mouse TfR (muTfR) ECD Avi-His (mouse, UniProt Q62351, biotin on the Avi tag (BirA) where captured on streptavidin).
T4 construct: also called MuTfR Avi-His
Description: ELISA OD450. In general terms: In an ELISA, binding on a coated surface is turned into a signal by an enzyme label.
On to B1, for which the “fold over isotype control” value amounted to 1 fold.
On to B2, for which the “fold over isotype control” value is 1 fold.

The target of a further test is T1, Cyno TfR ECD Avi-His. Kind of test: ELISA OD450.
With B1, the “fold over isotype control” value was 5 fold.
Same read-out and setting: with B2 the figure was 1 fold.

The target of another test is T2, huTfR Apical Domain-Avi-His. Kind of test: ELISA OD450.
Take B1: the “fold over isotype control” value is 40 fold.
Turning to B2, the “fold over isotype control” value was determined as 30 fold.

A further test has as its target T1, Cyno TfR ECD Avi-His. Description: SPR (Carterra LSA), 2+1 immobilised. Here is the method: The remaining unconjugated active groups on the chip were then blocked by injecting 1M Ethanolamine pH 8.5 (Carterra) for 7 minutes using the single channel flow cell.
Estimates of affinity were generated by injecting each analyte over the entire antibody array using the single channel flow cell. […] Data were processed and analyzed using NextGenKIT high-throughput kinetics analysis software (Carterra).
B3: the binding result is on record as “binds”.
B4: the binding result was “binds”.
